Assay results reported in the supplement of paper PMC4967469.
A lower IC50 marks a more sensitive line; fits outside the tested doses are given as limits. AUC, from the same fit, is the share of area under the viability curve across the 256-fold dose range: 1 means no effect, lower means more sensitive. A top dose marked as inferred is not printed in the source and was worked back from the curve model. For part of these data: Where an entry number is given, a second screen of the drug exists; the two often differ.

How the values were obtained:
Test in all cases: Viability of human cancer cell lines after 72 h of drug (GDSC screen)
[1] = compound: Cn1ncnc1[C@H]1c2n[nH]c(=O)c3cc(F)cc(c23)N[C@@H]1c1ccc(F)cc1 [BMN-673]; conditions: top dose 10 µM; top dose inferred
Protocol: (§1)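 Human cancer cell lines in 384-well plates, medium with 10% serum, drug for 72 h over a 256-fold dose range (nine 2-fold or five 4-fold steps up to the top dose). Adherent lines were fixed and stained with the nucleic acid dye Syto60, suspension lines read with resazurin; signal relative to control wells, capped at 0 and 100%. One two-parameter sigmoid per drug and line, fitted in a mixed model over all curves with the slope shared within a line.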

[2] = compound: COc1cc(C(=O)NC2CCN(C)CC2)ccc1Nc1ncc2c(n1)N(C1CCCC1)CCC(=O)N2C(C)C [XMD11-85h]; conditions: top dose 10 µM; top dose inferred
Protocol: as §1

[3] = compound: Cc1cc([C@@H](C)Nc2ccccc2C(=O)O)c2nc(N3CCOCC3)cc(=O)n2c1 [AZD6482]
Protocol: as §1

[4] = top dose 5 µM, screen: GDSC drug entry 1066, top dose inferred
[5] = top dose 5.12 µM, screen: GDSC drug entry 156

Cell Line	AUC [1]	IC50 [1] [µM]	AUC [2]	IC50 [2] [µM]	AUC [3, 4]	IC50 [3, 4] [µM]	AUC [3, 5]	IC50 [3, 5] [µM]
HSC-4 (head and neck, adherent)	0.478	0.536	0.854	> 10	0.882	> 5	0.916	> 5.12
HT-115 (large intestine, adherent)	0.972	> 10	0.989	> 10	0.984	> 5	0.975	> 5.12
Hey (ovary, adherent)	0.818	5.24	0.979	> 10	0.978	> 5		
Hs683 (glioma, adherent)	0.826	6.16	0.987	> 10	0.942	> 5	0.829	3.22
Hs766T (pancreas, adherent)	0.953	> 10	0.961	> 10	0.844	> 5	0.869	> 5.12
HuO9 (osteosarcoma, adherent)	0.666	1.92	0.923	> 10	0.856	4.73	0.743	1.74
HuP-T3 (pancreas, adherent)	0.91	> 10	0.942	> 10	0.907	> 5	0.967	> 5.12
HuP-T4 (pancreas, adherent)	0.685	2.13	0.908	> 10	0.843	3.85	0.984	> 5.12
IGR-1 (melanoma, adherent)	0.859	6.73	0.928	> 10	0.856	3.27	0.974	> 5.12
IST-MES1 (mesothelioma, adherent)	0.857	8.24	0.915	> 10	0.944	> 5	0.94	> 5.12
JEG-3 (urogenital system, adherent)	0.756	3.13	0.988	> 10	0.934	> 5	0.991	> 5.12
JHH-1 (liver, adherent)	0.865	> 10	0.958	> 10	0.731	1.52	0.779	2.27
JHOS-2 (ovary, adherent)	0.662	1.91	0.904	> 10	0.84	4.31		
JIMT-1 (breast, adherent)	0.734	3.1	0.974	> 10	0.904	> 5	0.976	> 5.12
K5 (thyroid, adherent)	0.523	0.721	0.964	> 10	0.864	4.07	0.892	> 5.12
KATOIII (stomach, semi-adherent)	0.987	> 10	0.972	> 10	0.978	> 5		
KM12 (large intestine, adherent)	0.817	6.23	0.984	> 10	0.949	> 5	0.927	> 5.12
KMRC-20 (kidney, adherent)	0.942	> 10	0.982	> 10	0.922	> 5	0.982	> 5.12
KP-N-YN (neuroblastoma, adherent)	0.982	> 10	0.92	> 10			0.98	> 5.12
KU-19-19 (bladder, adherent)	0.569	0.962	0.872	9.55	0.939	> 5	0.985	> 5.12
KURAMOCHI (ovary, adherent)	0.884	> 10	0.948	> 10	0.899	> 5	0.382	0.144

Cell Line	AUC [1]	IC50 [1] [µM]	AUC [2]	IC50 [2] [µM]	AUC [3, 4]	IC50 [3, 4] [µM]	AUC [3, 5]	IC50 [3, 5] [µM]
KYSE-150 (oesophagus, adherent)	0.95	> 10	0.962	> 10	0.951	> 5	0.928	> 5.12
KYSE-220 (oesophagus, adherent)	0.815	5.9	0.984	> 10	0.925	> 5	0.929	> 5.12
KYSE-410 (oesophagus, adherent)	0.861	9.37	0.914	> 10	0.985	> 5	0.978	> 5.12
L-428 (Hodgkin lymphoma, suspension)	0.945	> 10	0.992	> 10	0.993	> 5	0.977	> 5.12
LB647-SCLC (small cell lung carcinoma, semi-adherent)	0.904	> 10	0.94	> 10	0.94	> 5	0.944	> 5.12
LB771-HNC (head and neck, adherent)	0.909	> 10	0.948	> 10	0.936	> 5	0.929	> 5.12
LB831-BLC (bladder, adherent)	0.858	8.44	0.96	> 10	0.929	> 5	0.896	> 5.12
LB996-RCC (kidney, adherent)	0.699	2.51	0.932	> 10	0.53	0.382	0.924	> 5.12
LB1047-RCC (kidney, adherent)	0.593	1.16	0.929	> 10	0.906	> 5	0.873	> 5.12
LC-1-sq (lung squamous cell carcinoma, adherent)	0.93	> 10	0.975	> 10	0.935	> 5	0.982	> 5.12
LCLC-97TM1 (large cell lung carcinoma, adherent)	0.79	4.94	0.94	> 10			0.868	> 5.12
LNCaP-Clone-FGC (prostate, adherent)	0.685	2.24	0.928	> 10	0.796	2.73	0.722	
LXF-289 (lung adenocarcinoma, adherent)	0.724	2.67	0.831	6.18	0.789	2.17	0.674	0.967
M059J (glioma, adherent)	0.888	> 10	0.961	> 10	0.88	> 5	0.916	> 5.12
MC-CAR (haematopoietic neoplasm, suspension)	0.825	5.17	0.907	> 10	0.842	2.97	0.88	4.32
MDA-MB-415 (breast, adherent)	0.948	> 10	0.976	> 10	0.746		0.441	0.21
MDST8 (large intestine, adherent)	0.828	6.11	0.936	> 10	0.958	> 5	0.959	> 5.12
MES-SA (uterus, adherent)	0.856	6.26	0.894	8.91	0.985	> 5	0.932	> 5.12
MFE-280 (endometrium, adherent)	0.956	> 10	0.954	> 10	0.949	> 5	0.918	> 5.12
MLMA (hairy cell leukaemia, semi-adherent)	0.903	> 10	0.927	> 10	0.836	3.37	0.816	2.88
MN-60 (B-cell leukaemia, suspension)	0.909	> 10	0.924	> 10	0.988	> 5	0.875	> 5.12

Cell Line	AUC [1]	IC50 [1] [µM]	AUC [2]	IC50 [2] [µM]	AUC [3, 4]	IC50 [3, 4] [µM]	AUC [3, 5]	IC50 [3, 5] [µM]
MSTO-211H (mesothelioma, adherent)	0.111	0.0411	0.937	> 10	0.991	> 5	0.991	> 5.12
MZ2-MEL (melanoma, adherent)	0.838	8.48	0.94	> 10	0.967	> 5	0.89	> 5.12
NB7 (neuroblastoma, adherent)	0.913	> 10	0.927	> 10	0.897	> 5	0.849	4.12
NB14 (neuroblastoma, adherent)	0.938	> 10	0.985	> 10	0.892	> 5	0.892	> 5.12
NCC010 (kidney, adherent)	0.74	3.21	0.983	> 10	0.957	> 5		
NCI-H28 (mesothelioma, adherent)	0.792	6.19	0.941	> 10	0.835	4.86	0.893	> 5.12
NCI-H226 (lung squamous cell carcinoma, adherent)	0.896	> 10	0.941	> 10	0.953	> 5	0.954	> 5.12
NCI-H292 (lung adenocarcinoma, adherent)	0.38	0.272	0.779	5	0.653	0.912	0.785	2.7
NCI-H630 (large intestine, adherent)	0.97	> 10	0.932	> 10	0.973	> 5	0.931	> 5.12
NCI-H650 (lung adenocarcinoma, adherent)	0.772	4.26	0.979	> 10	0.96	> 5	0.934	> 5.12
NCI-H1437 (lung adenocarcinoma, adherent)	0.943	> 10	0.953	> 10	0.94	> 5	0.921	> 5.12
NCI-H1563 (lung adenocarcinoma, adherent)	0.922	> 10	0.956	> 10	0.93	> 5	0.902	> 5.12
NCI-H1694 (small cell lung carcinoma, suspension)	0.558	0.902	0.955	> 10	0.978	> 5	0.984	> 5.12
NCI-H1755 (lung adenocarcinoma, adherent)	0.83	7.71	0.953	> 10	0.774	2.29	0.729	1.61
NCI-H1781 (lung adenocarcinoma, adherent)	0.244	0.114	0.988	> 10	0.952	> 5	0.983	> 5.12
NCI-H1876 (small cell lung carcinoma, adherent)	0.18	0.0669	0.956	> 10	0.897	> 5	0.987	> 5.12
NCI-H2087 (lung adenocarcinoma, semi-adherent)	0.754	3.6	0.976	> 10	0.941	> 5	0.85	4.36
NCI-H2122 (lung adenocarcinoma, adherent)	0.798	4.43	0.987	> 10	0.989	> 5	0.973	> 5.12
NCI-N87 (stomach, adherent)	0.857	> 10	0.94	> 10	0.898	> 5		
NOS-1 (osteosarcoma, adherent)	0.901	> 10	0.862	> 10	0.683	1.15	0.907	> 5.12
